Measurements reported in ChEMBL document CHEMBL1201862, “PubChem BioAssay data set” (2004).
Several values for one entry are separate records, joined by “and”; a condition that tells them apart may be missing. Equal entries are not always repeated.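 Assay format: 96-well plates, 48-hour exposure. The concentration for 50% growth inhibition is given as GI50.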 Activity calls are given as the source filed them. Cut-off read from the data, not from the text of the source: active = GI50 up to about 1.1 µM and inactive = higher.

System: NCI-H322M
Experiment: NCI-60 cell line screen, 48 h

| Structure (SMILES) | GI50 |
| --- | --- |
| O=C(Nc1ccc(F)cc1)C(=O)C(C(=O)c1ccccc1F)C1OC(=O)c2ccccc21 (configuration not stated) | inactive: 36.1 µM |
| CC(C)(C)c1cc2c(O)c(c1)C(c1ccccc1)c1cc(C(C)(C)C)cc(c1O)Cc1cc(C(C)(C)C)cc(c1O)C(c1ccccc1)c1cc(C(C)(C)C)cc(c1O)C2 (configuration not stated) | inactive: > 100 µM |
| CC(=O)OCC1OC(n2c(-c3ccc(Cl)cc3)cc(-c3ccccc3)c(C#N)c2=S)C(OC(C)=O)C(OC(C)=O)C1OC(C)=O (configuration not stated) | inactive: 16.8 µM |
| O=C1CSC2(CC(/C=C/c3cccs3)=NN2c2cccc(S(=O)(=O)O)c2)N1c1nc2ccccc2s1 (configuration not stated) | inactive: 92 µM |
| O=C(NNc1ccccc1)/C(=C/c1ccc2c(c1)OCO2)NC(=O)c1ccccc1 | inactive: > 100 µM |
| COc1cc(NCC2COc3c(ccc(OC)c3OC)C2=O)c([N+](=O)[O-])cc1OC (configuration not stated) | inactive: > 100 µM |
| Cc1cc(S(=O)(=O)Nc2nncn2-c2ccc(Cl)cc2)c(S)cc1Cl | inactive: > 10 µM |
| CCC1C(C(=O)Nc2ccccc2C)=C(C)NC(C)=C1c1ccccc1C (configuration not stated) | inactive: > 100 µM |
| CC(=O)Oc1cc2c(cc1OC(C)=O)OCC(c1ccc(C)cc1)C2 (configuration not stated) | inactive: 43.7 µM |
| O=C(Cn1c(=O)oc2ccc(C(=O)c3ccc(F)cc3)cc21)c1ccc([N+](=O)[O-])cc1 | inactive: 37.1 µM |
| CCN(CC)CCNC(=O)c1nn(-c2ccc(Cl)cc2)c2c1CCc1cc(OC)ccc1-2 | inactive: 9.1 µM |
| CNC(=S)NC(=S)N(C)C | inactive: > 100 µM |
| Nc1nc(Cl)cc(OCC2(CO)CCCCC2)n1 | inactive: > 100 µM |
| COc1cccc2c1C(=O)c1c(O)c3c(c(O)c1C2=O)C[C@@](O)(C(=O)CO)C[C@@H]3OC1CC(N)C(O)C(C)O1 (some centres not stated) | active: 463 nM and active: 925 nM |
| COc1ccc(C2C(C#N)=C(S)N(C3OC(COC(C)=O)C(OC(C)=O)C(OC(C)=O)C3OC(C)=O)C(c3ccccc3)=C2C(C)=O)cc1 (configuration not stated) | inactive: > 100 µM |
| O/N=C/[C@H]1COC2(CCCCC2)O1 | inactive: > 100 µM |
| COc1ccc(C(=C[N+](=O)[O-])c2ccc(OC)cc2)cc1 | inactive: 28.2 µM |
| O=C(N/N=C1\C(=O)Nc2c(Cl)cc(Cl)cc21)C(=O)Nc1cccc(C(F)(F)F)c1 | inactive: > 100 µM |
| N#Cc1c(-c2ccccc2)c(C#N)c(=S)n(C2OCC(O)C(O)C2O)c1N (configuration not stated) | inactive: > 100 µM |
| CNN1C(=O)c2c(C)c(C)c(C#N)c(N)c2C1=O | inactive: 18.7 µM |
| CC(C)N(C(=O)C12C3C4C5C3C1(C(=O)N(C(C)C)C(C)C)C5C42)C(C)C (configuration not stated) | inactive: > 100 µM |
| CC1=NN(c2cccc(Cl)c2)C2(C1)SCC(=O)N2c1nc2ccccc2s1 (configuration not stated) | inactive: 26.4 µM |
| CC(=O)N1N=C(c2ccc3ccccc3c2O)CC1c1cccs1 (configuration not stated) | inactive: 16.2 µM |

| Structure (SMILES) | GI50 |
| --- | --- |
| CC(Br)C(=O)Nc1ccc(C(=O)O)c(O)c1 (configuration not stated) | inactive: 27.2 µM |
| COC(=O)c1ccc(CS(=O)(=O)c2ccccc2)cc1 | inactive: > 100 µM |
| O=C(/C=C/c1ccccc1)OCC1=C[C@@H](O)[C@@H]2C=CO[C@@H](OC3OC(CO)C(O)C(O)C3O)[C@H]12 (some centres not stated) | inactive: > 100 µM |
| CC(C)(C)NC(=O)C12C3C4C1C1C2C3C41C(=O)NC(C)(C)C (configuration not stated) | inactive: > 100 µM |
| Cc1ccccc1NC(=O)C1C(=O)N(c2ccccc2C)C(=O)/C1=N\NC(N)=S (configuration not stated) | inactive: > 100 µM |
| CON(C)C(=O)C(C)NC(=O)OCc1ccccc1 (configuration not stated) | inactive: > 100 µM |
| COC(=O)[C@H](Cc1ccccc1)NC(=O)CCCCCCC(=O)NO | inactive: 96.4 µM |
| C/C(=N\NC(=S)N1CC2CCC(CC2)C1)c1nccs1 | active: 0.259 µM |
| O=C1/C(=C/c2ccco2)NC(=S)N1CN1CCCCC1 | inactive: > 100 µM |
| CCCCCOc1ccc(NC2=C(Cl)C(=O)c3c(O)ccc(O)c3C2=O)cc1 | inactive: 3.11 µM |
| CC(C)OP(=O)(OC(C)C)C(C)(C)O | inactive: > 100 µM |
| COc1ccc2c(c1)CCc1c-2n(CCN2CCOCC2)c2ccc(OC)cc12 | inactive: > 100 µM |
| O=C1CN(c2cccc(Cl)c2)C(=O)CN1CCN1CC(=O)N(c2cccc(Cl)c2)CC1=O | inactive: > 100 µM |
| O=CNNC(=O)CSc1nc2ccc(I)cc2c(=O)n1Cc1ccccc1 | inactive: 43.4 µM |
| O=[N+]([O-])c1ccccc1C1SCc2nc3ccccc3n21 (configuration not stated) | inactive: > 100 µM |
| COc1ccc2c(c1)[n+]([O-])c(C(=O)CC(=O)C(=O)Nc1cccc(C)c1C)c(C)[n+]2[O-] | inactive: > 100 µM |
| COc1cc(/C=C/C(=N\NC(=O)c2ccccc2)c2sc(Nc3ccc(Cl)c(Cl)c3)nc2C)ccc1O | inactive: 40.3 µM |
| CC(C)=NNc1ncnc2[nH]cnc12 | inactive: 3.53 µM |
| CCCCCCCCCCCCNC(=O)CCC(NC(=O)c1ccc(N(C)Cc2cnc3nc(N)nc(N)c3n2)cc1)C(=O)NCCCCCCCCCCCC (configuration not stated) | inactive: > 100 µM |
| O=C1CCC2(c3ccc(F)cc3)Nc3ncccc3N12 (configuration not stated) | inactive: > 100 µM |
| Cc1ccc(S(=O)(=O)N/N=C2\C(=O)C3CC2C(Cl)C3Cl)cc1 (configuration not stated) | inactive: > 100 µM |
| CCCCCCCC1C(C)c2c([nH]c3ccccc23)C2C(=O)N(c3ccc(OC)cc3)C(=O)C21 (configuration not stated) | inactive: 3.13 µM |
| Cc1nc(-c2ccccc2)c(C)n2c1nc1ccccc12 | inactive: 31.5 µM |

| Structure (SMILES) | GI50 |
| --- | --- |
| Nc1ncnc2c1ncn2C1OC(CO)C(O)C(O)C1O (configuration not stated) | inactive: > 100 µM |
| O=C(CC1(O)C(=O)Nc2c(Cl)ccc(Cl)c21)c1ccc(F)cc1 (configuration not stated) | inactive: 89.5 µM |
| CC(=O)OC1COC(n2c(=S)n(-c3ccccc3)c(=O)c3cc(Br)ccc32)C(OC(C)=O)C1OC(C)=O (configuration not stated) | inactive: 60.8 µM |
| CCN(Cc1cc(Cl)cc(C)c1O)Cc1c(O)ccc2ccccc12 | inactive: 17.4 µM |
| CCOC(=O)/C(=C\c1ccccc1)C(=O)O | inactive: > 100 µM |
| CC1(C)CCC(=O)NC1CC(=O)CC1NC(=O)CCC1(C)C (configuration not stated) | inactive: > 100 µM |
| c1ccc(C2=NOC(c3ccccc3)N2C23CC4CC(CC(C4)C2)C3)cc1 (configuration not stated) | inactive: > 10 µM |
| O=C1c2ccccc2C(=O)N1C(=S)c1ccccc1 | inactive: > 100 µM |
| CCOC(=O)/C=C(/C(=O)OCC)n1ccc(=O)n(Cc2cn(COCCOC(C)=O)nn2)c1=O | inactive: > 100 µM |
| Cc1ccsc1/C=N/Nc1ncccn1 | inactive: > 100 µM |
| CC1(C)CC(=O)C2=C(C1)N(c1ccccc1)C1(O)C=CC(O)=C3C(=O)c4ccccc4C(=O)C321 (configuration not stated) | inactive: 25.4 µM |
| O=P1(c2ccccc2)c2ccccc2-c2ccccc21 | inactive: > 100 µM |
| NC1Cc2ccccc2OC1=O (configuration not stated) | inactive: > 100 µM |
| Cn1c(=O)c2ccccc2c2ccccc21 | inactive: 67.9 µM |
| COc1cc2cnc3c4cc(OC)c(OC(C)C)cc4ccc3c2cc1OC | inactive: > 100 µM |
| Cc1ccccc1NC(=O)CC(=O)NNCC(=O)Nc1nnc(-c2ccccc2)s1 | inactive: > 100 µM |
| COc1ccc(SCc2cc(OC)ccc2OC)cc1 | inactive: 98.2 µM |
| CSC1(SC)CCCCCCCCCCC1 | inactive: 99.3 µM |
| COc1ccc(OC)c(NC(=O)C(=O)Nn2c(S)nc3ccccc3c2=O)c1 | inactive: > 100 µM |
| COc1ccc(CC2C3=C(CCCC3)CCN2C)cc1 (configuration not stated) | inactive: > 100 µM |
| Cc1ccc(Nc2nc3c(s2)C(=O)c2ccccc2C3=O)c(C)c1 | inactive: 14.8 µM |
| COc1c2c(c3c(c1OC)c(=O)c1ccccc1n3C)OCO2 | inactive: > 100 µM |
| CC(=O)N1C(Nc2cccc3nc(C)ccc23)CCN1c1ccccc1 (configuration not stated) | inactive: > 10 µM |

| Structure (SMILES) | GI50 |
| --- | --- |
| CC(O)C(O)C(O)C(/C=N\Nc1ccccc1)=N/Nc1ccccc1 (configuration not stated) | inactive: 7.57 µM |
| N#Cc1cccc(/C=N/N/C(N)=N/O)c1 | inactive: 39.8 µM |
| C/C(=N\N=C(N)N)c1c(C(=O)OCCCCCCOC(=O)c2nc3sccn3c2/C(C)=N/N=C(N)N)nc2sccn12 | inactive: > 100 µM |
| COC(=O)[C@@]12C(=O)C=CC(=O)[C@@H]1C1C(=CC2COC(C)=O)O[C@@H]2OC3(CCCCC3)O[C@H]12 (some centres not stated) | inactive: 17.7 µM |
| CCC(C#N)NC(=O)NC(C#N)CC (configuration not stated) | inactive: > 100 µM |
| O=C(OCC(Cl)(Cl)Cl)N1CC[C@H](C2CCCCC2)C1 | inactive: 17.5 µM |
| Nc1ncnc2c1ncn2C1OC(CO)C(O)C1NS(=O)(=O)c1ccccc1 (configuration not stated) | inactive: > 100 µM |
| Cc1c(-c2coc(-c3ccc(Cl)cc3)n2)c(=O)n(-c2ccccc2)n1C | inactive: > 100 µM |
| C/C1=C\[C@H](C)C[C@H](C)OC(=O)C[C@H](c2ccc(O)cc2)NC(=O)[C@H](Cc2ccc(O)c(I)c2)N(C)C(=O)[C@H](C)NC(=O)[C@@H](C)C1 | active: 0.189 µM |
| CC(C)/C(Cl)=N\OC(=O)Nc1ccc(F)c([N+](=O)[O-])c1 | inactive: 13.1 µM |
| Cc1nc([N+](=O)[O-])cn1CC(=N)N | inactive: > 100 µM |
| OC1CCN(c2c3ccccc3nc3ccccc23)CC1 | inactive: 27.1 µM |
| CC1OC(c2ccc3c(c2O)C(=O)C2=C(C3=O)C3(O)C(=O)CC(C)(O)CC3(O)C=C2)CC(O)C1O (configuration not stated) | inactive: 30.8 µM |
| COc1cc(/C=C/C(=O)c2c([O-])on[n+]2-c2ccccc2)ccc1O | inactive: 4 µM |
| CCn1c(-c2c(Cl)cc(O)cc2Cl)cc2c(Cl)cc(O)cc21 | inactive: 10.7 µM |
| CC(C)(C)NC(=O)CCC1C(C(=O)NC(C)(C)C)C2(Cl)C(Cl)=C(Cl)C1(Cl)C2(Cl)Cl (configuration not stated) | inactive: 38.9 µM |
| CCN(CC)CC(=O)N1CCc2c([nH]c3ccccc23)C1c1cccnc1 (configuration not stated) | inactive: > 100 µM |
| C=C[C@@]1(C)CC(=O)[C@]2(O)[C@@]3(C)[C@@H](OC(C)=O)CCC(C)(C)[C@@H]3[C@H](O)[C@H](OC(C)=O)[C@@]2(C)O1 | inactive: > 100 µM |
| O=C1c2c(Br)sc(Br)c2[C@@H](NC(=O)C(F)(F)F)C1Br (some centres not stated) | inactive: 4.71 µM |
| CC(C)(C)OC(=O)NC(CSSCC(NC(=O)OC(C)(C)C)C(=O)O)C(=O)O (configuration not stated) | inactive: > 100 µM |
| N#CC1C(=S)NC(c2ccccc2)=CC12CCCCC2 (configuration not stated) | inactive: 21.9 µM |
| CCOC(=O)c1cc(NC(=O)c2ccccc2)c(=O)n2c(cc3c(Cl)cccc32)c1O | inactive: > 100 µM |
| CC1=CC(=O)N(n2c(-c3ccccc3)n[nH]c2=O)C1=O | inactive: > 100 µM |
